# Experimental data reported in publication PMC12136788.
# The list shows a part of the results.
# T1: UNK ZnF1-3 (human, UniProt Q9C0B0 31-174)
# T1 sequence: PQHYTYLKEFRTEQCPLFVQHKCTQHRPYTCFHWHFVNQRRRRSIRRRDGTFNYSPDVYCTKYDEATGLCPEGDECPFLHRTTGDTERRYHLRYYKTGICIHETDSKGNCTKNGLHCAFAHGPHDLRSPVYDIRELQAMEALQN
# B1: chr7:80571614:80571615:-_ENSMUSG00000078671_ENSMUST00000169922|mus_hu|FALSE|FALSE (ssRNA)
# RNA: GGGAGUUCUACAGUCCGACGAUCAUAUACAAGAAUCAAAAGUACAGCAGUUUUACAAUGUAGGAAAAUUUAAUACAUACUAUAUAAACAACAUUAUUUACAUCAGAAAUCACUAGGACAGUGGCAUUUUUCACAAAUAUAAAUCAACAGAGGAUUGAGCAUCA
# B2: chr4:147379129:147379130:-_ENSMUSG00000029016_ENSMUST00000137724|mus_hu|FALSE|FALSE (ssRNA)
# RNA: GGGAGUUCUACAGUCCGACGAUCCCGUCCAGUCAGUUUAGGGGAGGGAGGUAUUUGCAUUCUACUGUCUAUCUCUGGGCUAAACUGAUGGGAACAAAAUAUCUGGUGACUUAAACACAACAGGAUGUGCACGAGGGAUGAAUUCAACAGAGGAUUGAGCAUCA
# B3: chr11:121174221:121174222:+_ENSG00000109929_ENST00000392789|hu_hu|motif|central (ssRNA)
# RNA: GGGAGUUCUACAGUCCGACGAUCUGUUGCACAGAAGAAAUAAAGGAUGUAAGCACCAACAUUUGUUACAAUCAGAAGACGGAUAGCUUGUCGGAAGAUGUCAUCUUCUGGCCAUGUGGCUGGAUACACGUAUGGUGUAAAAAACAACAGAGGAUUGAGCAUCA
# B4: chr2:192225418:192225419:+_ENSG00000128641_ENST00000304164|hu_hu|FALSE|FALSE (ssRNA)
# RNA: GGGAGUUCUACAGUCCGACGAUCAUAGAACACAUGGAAGUUUCUUUCACCUCUUGGCUGUUUAACAACCCGAGAUUUCUCUAAAAGAUAGUUACUUAUUACUCCUCCUAGUGGAUCGCCUUUAAAGUCAAAUUCAAUAUCCAUCAACAGAGGAUUGAGCAUCA
# B5: chr2:216981417:216981418:+_ENSG00000079246_ENST00000392132|hu_hu|hu_hu_hu_mus_True|28_98 (ssRNA)
# RNA: GGGAGUUCUACAGUCCGACGAUCCUGAUACUGGUCCCCACCAGAAAGGGCAUUAUCAGUGCCAUCUGUGCCAUAGAGGACUAACGCAAUCUCAUCUUUGCUCUCCGCAAACACCUGUCGUUGGACAAACAUAGUCAUCACUUUCAACAGAGGAUUGAGCAUCA
# B6: chr2:198351390:198351391:-_ENSG00000144381_ENST00000345042|hu_hu|hu_hu_hu_mus_False|28_48 (ssRNA)
# RNA: GGGAGUUCUACAGUCCGACGAUCUCAUUCCCACCCUCCACAGAAAGGCUGCUUCUGAACUCUCAUGUGGUGACACAGCGCUACAGUCCUGAUUUUAACAGAACAGUAGUAAAAAUGCAGUGAUUUAAGUUGAAAGCAGGACACCAACAGAGGAUUGAGCAUCA
# B7: 141914647_141914767_731_3pUTR_ENSMUSG00000041688_ENSMUST00000112835|mouse|control|control (ssRNA)
# RNA: GGGAGUUCUACAGUCCGACGAUCACCAUAGCAAAAGGGUCAGCUGGCAUGGGCUGAUAAGAAGCAGACUGCUGAGCCCGAGGCAUAGCUGAGUAGGCUUCUCCUGGCUGCUGCUGCGCUGAAGUCAGGCUGGCCUGGGCGUGACAACAGAGGAUUGAGCAUCA
# B8: chrX:71549762:71549763:+_ENSMUSG00000019087_ENSMUST00000019231|mus_mus|mus_mus_mus_hu_False|8_88 (ssRNA)
# RNA: GGGAGUUCUACAGUCCGACGAUCAAACCCGUGUACUUCUUAUUGUUACAUCACCCCCACCAGAAAACGAUAACGACAGCCAAGCAGGACAGACAGUUAAGUAGUACUUCCACACUCCCAAACUCAGAGGAACCUCAAACCUUACAACAGAGGAUUGAGCAUCA
# B9: chr7:141438946:141438947:+_ENSG00000106028_ENST00000265304|hu_mus|hu_hu_hu_mus_True|18_98 (ssRNA)
# RNA: GGGAGUUCUACAGUCCGACGAUCGACGAAAUACCUGACAGGUCUUCCUUCGAAACAUGGCUUCUGUUUUUCUUACAACCUAAUCUUUAGGCUUUUCCUAAAGGAAAGAAAGAAAAGGCCCAGCCACUAAAUCAAGAAACUACACAACAGAGGAUUGAGCAUCA
# B10: 48685348_48686994_574_CDS_ENSG00000162869_ENST00000294952|human|control|control (ssRNA)
# RNA: GGGAGUUCUACAGUCCGACGAUCGUCAACCACAGCUUGGUGCUGGGCUGCUUCUGUCUCCAGAGUGGCCAGUCGACUCCUCAGCUCUGCUUCCACAUGCUUGUGCUGCUCAUCAGCUUCAAAAAAUUGUAUAUGCAACCGUUCCAACAGAGGAUUGAGCAUCA
# B11: 65811580_65813991_1083_CDS_ENSMUSG00000029201_ENSMUST00000031103|mouse|control|control (ssRNA)
# RNA: GGGAGUUCUACAGUCCGACGAUCACCAACGCUGGCCUUUAGAAACUUAUUCCCAAUUCUUUGGUCCAUCCCGAUGGCCGUUGCCACCUCUUCCACAUCGGCGCCUGUUGCUUCACACAGAGCGCUGAUGGAGUUGAUGCUGCUCAACAGAGGAUUGAGCAUCA
# B12: chr13:77182921:77182922:-_ENSMUSG00000021597_ENSMUST00000151524|mus_hu|FALSE|FALSE (ssRNA)
# RNA: GGGAGUUCUACAGUCCGACGAUCAGUGUGUACCCCAGGACACACUUUCAAAUUCUCAGGCAGUUCCUUAAGAAUGUGUGGGAGUUUCUGCAAUGUCUUUAUAUUUCCAGCAUAAAGAUCCAGUAACCAGUCAGUAUGAACACUCAACAGAGGAUUGAGCAUCA
# B13: chr5:60455605:60455606:-_ENSG00000188725_ENST00000339020|hu_mus|motif|central (ssRNA)
# RNA: GGGAGUUCUACAGUCCGACGAUCAACUUAAAUACUUGCCAGUAGAUACCAACAAACUUUUAUUUCCAAGCCUAAAAGUUACGGUAGUAUUGAGGUCAGAACAUGACUCUUCUGUACGGUCAGAUUAAUUCACUAAAUAAUACUCAACAGAGGAUUGAGCAUCA
# B14: 39875923_39878623_2742_CDS_ENSG00000121892_ENST00000303538|human|control|control (ssRNA)
# RNA: GGGAGUUCUACAGUCCGACGAUCAAGCUGGACUUCUUUAUUUGUGAAUAUGGCGUGUAUACAGUGCACAGCCUGUUUUGCUUGGUGUGGAGUACCCCUCUUUGCUUUUUGAUGUAAAAUGGGAAUUAAGGUCGAUCGUAUCUGCAACAGAGGAUUGAGCAUCA
# B15: chr1:66463027:66463028:+_ENSMUSG00000015222_ENSMUST00000114013|mus_mus|mus_mus_mus_hu_True|48_48 (ssRNA)
# RNA: GGGAGUUCUACAGUCCGACGAUCUUUUCUUUCAGGAGUGGAAAUUCUGCCUCUCCCGGUUUUAAAAGGCUUUUCUUUUCUAUGUUUCUCGAGAGACGAUCUCCGAGCUUCCUUUUCAGCUUUCUCCUCUUUAGGAAUAGUUUCCAACAGAGGAUUGAGCAUCA
# B16: chr19:29217640:29217641:+_ENSMUSG00000024785_ENSMUST00000064393|mus_mus|FALSE|FALSE (ssRNA)
# RNA: GGGAGUUCUACAGUCCGACGAUCCUUGGUUUCAACUUUAAACAUAACCUGGAAAAAGCUCUUCAGAUGCCGCAAAAAUUCUAUCGUGUAGGGUGAGAGUGGUCCCAGCAGGACUUUGGAAACGUCCUGCUGUCCAAGGGUCAUCAACAGAGGAUUGAGCAUCA
# B17: 74176515_74177363_2164_3pUTR_ENSMUSG00000034799_ENSMUST00000030170|mouse|control|control (ssRNA)
# RNA: GGGAGUUCUACAGUCCGACGAUCGAUCCUGUCUUGUCCUUGGCCUGCAAGCCCUGGGCACAGACCACUGUGAUGCUAAUUUUGGCAGACCACUUGGAUGUGCCGUCCAGCACACUCUGCUUGACAGCUUUCAUCUGCUGUGUGCAACAGAGGAUUGAGCAUCA
# B18: chr15:83807826:83807827:-_ENSG00000166503_ENST00000299633|hu_hu|motif|central (ssRNA)
# RNA: GGGAGUUCUACAGUCCGACGAUCGGGCAACUUCAUGCAACCAAAUAACAUGAAAUUAAAUCAGUAACUUUUAAAAAAGGCGGAAAUGUCUUUUCCCCCCGAAACACAACAGAGAGGAAUAUGAAUAAUGUACAUACAAACUGGCAACAGAGGAUUGAGCAUCA
# B19: chr2:69570450:69570451:+_ENSMUSG00000042133_ENSMUST00000090858|mus_mus|FALSE|FALSE (ssRNA)
# RNA: GGGAGUUCUACAGUCCGACGAUCGCAAAGGCAGCGAAAGUUCUCACACGUUUUGGGACAUACAUCGGAAAAUAAUUCAAAGACAACUCUUCCAGCAGGUUGAUUAUUAAUGGCAAUGUCAAAAAAACACCGAGGACGCUGGACCAACAGAGGAUUGAGCAUCA
# B20: chr7:35674789:35674790:-_ENSG00000122557_ENST00000396081|hu_mus|FALSE|FALSE (ssRNA)
# RNA: GGGAGUUCUACAGUCCGACGAUCUCCAGCUUGGUGUAAAUAAACCAGCAGCAUGGCUCCCAUUACCAUGAUAAACCGACUGAAAGAAGAAUAGAAGUAUACGAUGCUGAGGAGGACGGCAGCUCGGGAGAACGUGUACACCCACAACAGAGGAUUGAGCAUCA
# B21: chr16:75203323:75203324:+_ENSG00000184517_ENST00000393430|hu_mus|FALSE|FALSE (ssRNA)
# RNA: GGGAGUUCUACAGUCCGACGAUCAAGUGGUUCCCCAAAUCCACCACACCCGUCUCCUUUCUUUCUUACACAGUUUCUACUGCUAAGUAAGUCUGAAUUGUACUUCAAAGUUUUUUCAUAUAAAUCAUAUUUAUAGGGAACUUGCAACAGAGGAUUGAGCAUCA
# B22: chr15:40462788:40462789:+_ENSG00000156970_ENST00000287598|hu_hu|FALSE|FALSE (ssRNA)
# RNA: GGGAGUUCUACAGUCCGACGAUCAAAUCGAGGAUCACUAUAAUAUCGUUUUUCUCCUUGUAGUGCUUCUACAGCUCUUUCUAAUAACGUUGACAUAUUACUCUCCUUCCCACCUUGAGGAUAGUUCUGCUCUGUCCAGCUGAUCAACAGAGGAUUGAGCAUCA
# Molecular target: T1, UNK ZnF1-3
# Experiment: nsRBNS (natural sequence RNA bind-n-seq); RBNS binding buffer (assumed for nsRBNS): 25 mM Tris pH 7.5, 150 mM KCl, 3 mM MgCl2, 0.01% Triton X-100, 500 ug/ml BSA, 20 U/ml SUPERase-In, 4 C; UNK is unkempt and MSI1 is Musashi-1; names of the RNAs are library labels; protein concentration not given here; high values mean tight binding
row,Binder,binding signal [enrichment R]
1,B1,1.03
2,B2,1.09
3,B3,1.67
4,B4,1.09
5,B5,0.996
6,B6,1.1
7,B7,0.769
8,B8,1.74
9,B9,0.926
10,B10,0.911
11,B11,0.425
12,B12,0.633
13,B13,0.497
14,B14,0.742
15,B15,0.402
16,B16,1.4
17,B17,0.369
18,B18,2.32
19,B19,1.65
20,B20,2.16
21,B21,1.18
22,B22,0.862
